# Assay results published in the supplement of paper PMC4604168 (melanoma cell lines).
# Some of the results follow. Many values rest on one well or one pass, so single values are uncertain.
# How the values were obtained:
# Assay in all cases: cell count relative to DMSO control; melanoma cells; higher = more viable cells
# Conditions in all cases: library dose: standard library concentration; 72 h
# G361 = system: G361
# IPC-298 = system: IPC-298
# IST-MEL1 = system: IST-MEL1
# LB2518-MEL = system: LB2518-MEL
# LOXIMVI = system: LOXIMVI
# MEL-HO = system: MEL-HO
# MZ2-MEL = system: MZ2-MEL
# MeWo = system: MeWo
# RPMI7951 = system: RPMI7951
# RVH-421 = system: RVH-421
# 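Further: cells treated in 1,536-well plates, then fixed and DAPI-stained, with nuclei counted from automated high-throughput microscope images.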
Compound,cell count (G361),cell count (IPC-298),cell count (IST-MEL1),cell count (LB2518-MEL),cell count (LOXIMVI),cell count (MEL-HO),cell count (MZ2-MEL),cell count (MeWo),cell count (RPMI7951),cell count (RVH-421)
"NC1(c2ccc(-c3nc4ccn5c(=O)[nH]nc5c4cc3-c3ccccc3)cc2)CCC1 + COc1ccc(COc2ccc(Cc3cnc(N)nc3N)cc2OC)cc1 [GW2580] (first compound 2 µM, partner dose 5 µM)",84.5%,85.1%,82.9%,83.5%,97.4%,72.5%,87.6%,65.9%,76.6%,81.5%
"NC1(c2ccc(-c3nc4ccn5c(=O)[nH]nc5c4cc3-c3ccccc3)cc2)CCC1 + CC(C)(C)c1cnc(CSc2cnc(NC(=O)C3CCNCC3)s2)o1 [SNS-032] (first compound 2 µM, partner dose 0.05 µM)",87.5%,108%,78.7%,55.7%,64%,79.7%,99.9%,76%,37.9%,85.8%
"CN(c1ncccc1CNc1nc(Nc2ccc3c(c2)CC(=O)N3)ncc1C(F)(F)F)S(C)(=O)=O + COC(=O)c1sccc1S(=O)(=O)Nc1ccc(Nc2ccccc2)cc1OC [GSK0660] (first compound 0.4 µM, partner dose 5 µM)",75.4%,92.5%,79.9%,80.2%,109%,81%,58%,73.5%,65.8%,52%
"CCCS(=O)(=O)Nc1ccc(F)c(C(=O)c2c[nH]c3ncc(Cl)cc23)c1F + O=C1NC(=O)/C(=C/c2ccc(-c3ccc(F)cc3O)o2)S1 [AS252424] (first compound 0.4 µM, partner dose 5 µM)",45.7%,82.3%,85.5%,83.7%,87.6%,73.5%,65.7%,75%,104%,74.3%
"NC1(c2ccc(-c3nc4ccn5c(=O)[nH]nc5c4cc3-c3ccccc3)cc2)CCC1 + Cc1ccc(NC(=O)c2cccc(N(C)C)c2)cc1NC(=O)c1ccc(O)cc1 [ZM336372] (first compound 2 µM, partner dose 10 µM)",96.4%,123%,89.1%,79%,85.7%,90.2%,97.9%,98.9%,81.8%,85.5%
"CN(c1ncccc1CNc1nc(Nc2ccc3c(c2)CC(=O)N3)ncc1C(F)(F)F)S(C)(=O)=O + C[C@@H](Oc1cc(-c2cnn(C3CCNCC3)c2)cnc1N)c1c(Cl)ccc(F)c1Cl [Crizotinib] (first compound 0.4 µM, partner dose 1 µM)",104%,98.5%,90.8%,71.5%,123%,89.6%,82.4%,101%,80.1%,79.7%
"CN(c1ncccc1CNc1nc(Nc2ccc3c(c2)CC(=O)N3)ncc1C(F)(F)F)S(C)(=O)=O + Cc1cc(N2CCOCC2)cc2[nH]c(-c3c(NC[C@@H](O)c4cccc(Cl)c4)cc[nH]c3=O)nc12 [BMS536924] (first compound 0.4 µM, partner dose 1 µM)",76.6%,111%,91%,89.3%,86.5%,95.1%,102%,77.1%,73.9%,108%
"CN(c1ncccc1CNc1nc(Nc2ccc3c(c2)CC(=O)N3)ncc1C(F)(F)F)S(C)(=O)=O + NC1(c2ccc(-c3nc4ccn5c(=O)[nH]nc5c4cc3-c3ccccc3)cc2)CCC1 [MK2206] (first compound 0.4 µM, partner dose 2 µM)",70.5%,76%,83.3%,64.1%,96.7%,73.4%,76.6%,76.2%,49.3%,71.7%
"NC1(c2ccc(-c3nc4ccn5c(=O)[nH]nc5c4cc3-c3ccccc3)cc2)CCC1 + Nc1cccc2c1CN(C1CCC(=O)NC1=O)C2=O [lenalidomide] (first compound 2 µM, partner dose 5 µM)",88%,102%,91.6%,85.2%,93.7%,73.4%,96.1%,93.7%,74.1%,81.3%
"CCCS(=O)(=O)Nc1ccc(F)c(C(=O)c2c[nH]c3ncc(Cl)cc23)c1F + N#Cc1c(O)c2c(-c3ccc(-c4ccccc4O)cc3)csc2[nH]c1=O [A769662] (first compound 0.4 µM, partner dose 10 µM)",81.4%,86.9%,80.9%,94%,121%,80.8%,84.5%,106%,113%,68.9%
"NC1(c2ccc(-c3nc4ccn5c(=O)[nH]nc5c4cc3-c3ccccc3)cc2)CCC1 + O=C(CCCCCCC(=O)Nc1ccccc1)NO [vorinostat] (first compound 2 µM, partner dose 0.4 µM)",68.3%,86.1%,74.3%,74.5%,68.2%,63.3%,101%,80.7%,72.4%,74.9%
"CS(=O)(=O)c1ccc(C(=O)Nc2ccc(Cl)c(-c3ccccn3)c2)c(Cl)c1 [vismodegib] + COC(=O)c1sccc1S(=O)(=O)Nc1ccc(Nc2ccccc2)cc1OC [GSK0660] (first compound 5 µM, partner dose 5 µM)",97.4%,104%,113%,110%,138%,99.7%,96.4%,118%,90.1%,123%
"CS(=O)(=O)c1ccc(C(=O)Nc2ccc(Cl)c(-c3ccccn3)c2)c(Cl)c1 [vismodegib] + Oc1nc(-c2ccc(C(F)(F)F)cc2)nc2c1CSCC2 [XAV939] (first compound 5 µM, partner dose 10 µM)",74.7%,85%,91%,88.7%,93.3%,83.2%,87.1%,83.8%,86%,91.7%
"CS(=O)(=O)c1ccc(C(=O)Nc2ccc(Cl)c(-c3ccccn3)c2)c(Cl)c1 [vismodegib] + CCN(CC)CCCCNc1ncc2cc(-c3cc(OC)cc(OC)c3)c(NC(=O)NC(C)(C)C)nc2n1 [PD173074] (first compound 5 µM, partner dose 0.5 µM)",110%,115%,141%,113%,183%,109%,107%,99.8%,114%,134%
"NC1(c2ccc(-c3nc4ccn5c(=O)[nH]nc5c4cc3-c3ccccc3)cc2)CCC1 + CCCCCCCCCCCC1=C(O)C(=O)C=C(O)C1=O [Embelin] (first compound 2 µM, partner dose 6 µM)",74.7%,76.8%,68%,72.1%,88.2%,67.4%,86.1%,73.9%,70.9%,64.3%
"CCCS(=O)(=O)Nc1ccc(F)c(C(=O)c2c[nH]c3ncc(Cl)cc23)c1F + Clc1ccc(Nc2nnc(Cc3ccncc3)c3ccccc23)cc1 [vatalanib] (first compound 0.4 µM, partner dose 10 µM)",79.7%,56.4%,71.5%,80.5%,88.4%,58.3%,65.3%,67.1%,59.5%,45.8%
"CCCS(=O)(=O)Nc1ccc(F)c(C(=O)c2c[nH]c3ncc(Cl)cc23)c1F + COc1ccc(-c2ccc3c(N4CCOCC4)nc(N4C[C@@H](C)O[C@@H](C)C4)nc3n2)cc1CO [KU0063794] (first compound 0.4 µM, partner dose 0.1 µM)",50%,55.1%,73.7%,82.9%,81.8%,71.6%,88.7%,76.8%,94.4%,70.3%
"NC1(c2ccc(-c3nc4ccn5c(=O)[nH]nc5c4cc3-c3ccccc3)cc2)CCC1 + NCC(=O)Nc1ccc(-n2nc(C(F)(F)F)cc2-c2ccc3c(ccc4ccccc43)c2)cc1 [OSU03012] (first compound 2 µM, partner dose 5 µM)",5.92%,56.7%,81.2%,117%,92%,76.7%,117%,86.9%,76.9%,88.8%
"NC1(c2ccc(-c3nc4ccn5c(=O)[nH]nc5c4cc3-c3ccccc3)cc2)CCC1 + COc1cc(Nc2ncc(F)c(Nc3ccc4c(n3)NC(=O)C(C)(C)O4)n2)cc(OC)c1OC [Tamatinib] (first compound 2 µM, partner dose 2 µM)",64.4%,91.5%,57.6%,54.4%,21.1%,56%,74.2%,63.7%,25.2%,76%
"C=C(c1ccc(C(=O)O)cc1)c1cc2c(cc1C)C(C)(C)CCC2(C)C [Bexarotene] + Oc1cc(-c2nc(-c3ccccc3)[nH]c2-c2ccncc2)ccc1Cl [L779450] (first compound 10 µM, partner dose 1 µM)",67.4%,86.7%,84%,138%,156%,85.4%,110%,94.7%,82.3%,86.5%
"CN(c1ncccc1CNc1nc(Nc2ccc3c(c2)CC(=O)N3)ncc1C(F)(F)F)S(C)(=O)=O + Cc1ccc(NC(=O)c2cccc(N(C)C)c2)cc1NC(=O)c1ccc(O)cc1 [ZM336372] (first compound 0.4 µM, partner dose 10 µM)",64.6%,95.3%,42.1%,72.6%,79%,73.4%,80%,88.6%,38.7%,72.9%
"CS(=O)(=O)c1ccc(C(=O)Nc2ccc(Cl)c(-c3ccccn3)c2)c(Cl)c1 [vismodegib] + C[C@@H](Oc1cc(-c2cnn(C3CCNCC3)c2)cnc1N)c1c(Cl)ccc(F)c1Cl [Crizotinib] (first compound 5 µM, partner dose 1 µM)",94.7%,96.3%,96%,75.8%,132%,107%,84.1%,77.5%,85.8%,87%
